The campaign covered roughly 48,000 compounds. About 550 (1.1%) were called active. About 4% were inconclusive and are not listed. Cut-off read from the data, not from the text of the source: active = potency below about 15 µM; inconclusive = mostly about 16 µM to 33 µM; inactive = weaker than that. The list shows a part of the results.
Potency is the fitted concentration of half-maximal effect.

The assay concerns the target Lysosomal acid glucosylceramidase (Homo sapiens) (UniProt P04062). The assay is described as follows: Glucocerebrosidase.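 Note: the screen sought inhibitors.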 As to conditions: purified enzyme, resorufin glucoside fluorescence (screen aimed at inhibitors), 20 min. In a few lines: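 Wild-type enzyme at 0.2 nM final in 50mM citric acid/KH2PO4, 10mM sodium taurocholate, 0.01% tween-20, pH 5.9, with resorufin beta-D-glucopyranoside at 30 uM final. Compounds titrated, 20 min at RT, red fluorescence read; AC50 from titration.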
Sequence of UniProt P04062 (P04062 whole entry, looked up): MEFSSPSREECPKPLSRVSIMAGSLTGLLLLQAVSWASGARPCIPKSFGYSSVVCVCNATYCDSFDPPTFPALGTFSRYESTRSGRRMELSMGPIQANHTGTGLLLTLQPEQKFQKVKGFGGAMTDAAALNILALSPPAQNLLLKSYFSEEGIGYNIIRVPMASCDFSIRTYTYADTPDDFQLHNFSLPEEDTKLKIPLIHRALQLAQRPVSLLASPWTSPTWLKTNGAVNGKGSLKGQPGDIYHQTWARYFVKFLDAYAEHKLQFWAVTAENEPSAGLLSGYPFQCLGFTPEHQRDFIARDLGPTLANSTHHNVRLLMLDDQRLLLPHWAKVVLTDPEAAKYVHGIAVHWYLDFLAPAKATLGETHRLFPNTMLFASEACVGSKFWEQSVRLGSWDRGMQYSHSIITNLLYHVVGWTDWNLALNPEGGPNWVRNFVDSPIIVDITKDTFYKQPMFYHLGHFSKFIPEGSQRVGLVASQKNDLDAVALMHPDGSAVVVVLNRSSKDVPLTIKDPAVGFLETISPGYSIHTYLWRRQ
Regarding `O=C(CC(C(=O)O)C1CCCO1)Nc1cccc(C(F)(F)F)c1` (stereo not given), the Potency was inactive: > 76.9 µM.
Take `Cc1cccc(OCc2nnc(SCC(=O)N3CCN(C(=O)c4ccco4)CC3)n2C)c1C`: the Potency was inactive: > 76.9 µM.
As for `COc1ccc(NC(=O)C23CCC(C2)C(C)(C)C3=O)cc1` (stereo not given), the Potency is inactive: > 76.9 µM.
`CCCCOc1ccccc1C1C(C(N)=O)=C(C)Nc2nnnn21` (stereo not given): the Potency was inactive: > 76.9 µM.
Take `CCOC(=O)N1CCC(NC(=O)c2cc(S(=O)(=O)N3CCc4ccccc43)cn2C)CC1`: the Potency is inactive: > 76.9 µM.
In the case of `O=C1c2oc3ccc(Br)cc3c(=O)c2C(c2cccc(F)c2)N1CCO` (stereo not given) it was inactive: > 76.9 µM; in that of `CCCn1c(-c2ccc(OC)cc2)nc2nc3ccccc3nc21`, inactive: > 76.9 µM.
With `Cc1nc2nc(-c3cccnc3)nn2c(C)c1Cl` the figure was inactive: > 76.9 µM; with `O=C(c1cc2c(=O)oc3ccccc3c2s1)N1CCOCC1`, inactive: > 76.9 µM.
With `Cc1ccc(NC(=O)CSc2nnc(-c3ccc(S(=O)(=O)N4CCCC4)cc3)o2)cc1C` the figure was inactive: > 76.9 µM; with `COc1ccc(-n2nnc3c(=O)n(Cc4ccccc4C)cnc32)cc1`, inactive: > 76.9 µM; with `COc1ccc(-n2nc(C(=O)N3CCN(Cc4ccc5c(c4)OCO5)CC3)c3ccccc3c2=O)cc1`, inactive: > 76.9 µM.
`O=C(CSc1nnc(Cn2nnc(-c3ccccc3)n2)n1-c1ccccc1)Nc1ccccc1`: the Potency was inactive: > 76.9 µM.
In the case of `CCOC(=O)c1[nH]c2ccccc2c1NC(=O)CN1CCCCC1`, the Potency is inactive: > 76.9 µM.
As for `Cn1c(=O)n(C)c2cc(S(=O)(=O)N3CCCc4ccccc43)ccc21`, the Potency is inactive: > 76.9 µM.
`Cc1cc(C)c2oc(-c3ccc(Cl)c(NC(=O)c4ccc(C#N)cc4F)c3)nc2c1`: the Potency was inactive: > 76.9 µM.
Regarding `Cc1ccc(S(=O)(=O)NCCNC(=O)CN2CCCC2)cc1`, the Potency is inactive: > 76.9 µM.
For the molecule `O=C(O)c1cc(-c2ccccc2Cl)n[nH]1`, the Potency was inactive: > 76.9 µM.
Take `CSc1nnc(-c2cc3ccccc3cc2O)n1C`: the Potency was inactive: > 76.9 µM.
As for `O=C(CN1C(=O)C2C3C=CC(C3)C2C1=O)Nc1cccc2c1CCCC2` (stereo not given), the Potency was inactive: > 76.9 µM.
With `O=C(Cc1ccc(F)cc1)N(c1ccccc1)C1C=CS(=O)(=O)C1` (stereo not given), the Potency is inactive: > 76.9 µM.
On to `CC(C)(CNC(=O)c1cc2ccccc2o1)N1CCOCC1`, for which the Potency was inactive: > 76.9 µM.
In the case of `C=CCSc1nc2c(c(=O)n(C)c(=O)n2C)n1CC` it was inactive: > 76.9 µM.
Turning to `Cc1ccc(-c2nnc(CSc3nnc(C)s3)o2)cc1`, the Potency was inactive: > 76.9 µM.
With `O=C(Nc1cc(Cl)ccc1O)C1CCCO1` (stereo not given), the Potency is inactive: > 76.9 µM.

These data come from PubChem BioAssay AID360 (National Center for Advancing Translational Sciences (NCATS), 2006).
